# Data reported in the supplement of paper PMC11417369.
# The list shows a part of the results.
# Tested on: PfHDP1 homeodomain (GST-tagged)
# Assay: gcPBM binding intensity (ln(normalized median fluorescence intensity)); higher = stronger DNA binding
# In short: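 An Agilent 4 × 180k array of primer-extended double-stranded 36-bp intergenic genomic probes, with negative controls, was incubated for 1 h with GST-tagged P. falciparum DNA-binding domains expressed in E. coli. Alexa488 anti-GST antibody detected bound protein, scanned at 488 nm. Binding intensity is the highest Masliner-normalised natural-log median intensity across replicate spots of either probe orientation.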
row,Sequence,gcPBM binding intensity (ln)
1,ATAAAAATTAAAGAATGTACACATATAATATATGTA [XGTACX_site8735],6.41
2,TTGTTTCCTTAATATTCACACACATATATATAATAT [CACACA_site8553],7.2
3,ATAATCCTTAAACACACACACACACTAATAAATAAA [CACACA_site8052],7.08
4,TATAAATGTATACAAGTGCATATTATTCACACATAA,8.59
5,TAAAATTTTTTTGTTTGTACATATATATATATAATA [XGTACX_site5609],6.87
6,TATATATTATACACGTGTACACATTATAACAATATA [XGTACX_site7799],6.82
7,TTTCCCTTAAATTAATGTACATAAATTGAAAATACC [XGTACX_site1602],6.63
8,TTGCCCCAGGAGTTCACACACATAATAGATTGTCAC [CACACA_site726],6.59
9,AAAAAAATAAATAAATACATACATATATATATGTAT [GTGCAC_negctrl_site510],6.13
10,AAAAAAAAAAAACACACACACAAAAAAAAATATATA [CACACA_site1105],6.47
11,AGCAACCCCCTAGCTACACACATATAGATATATATA [CACACA_site951],7.23
12,ACACATGACATCCGTTGTACAATCATCATAAAAATG [XGTACX_site5397],7.09
13,AGCATTTATGAAAAATGTACACACATCAAATGCTTA [XGTACX_site8749],6.48
14,TATAAAAATAATATTACACACATGTAAAATGTCGGT [CACACA_site3264],6.32
15,AAGCTACACATAGATTATTATTAATTTAATGTATAT [CACACA_negctrl_site548],6.19
16,TACGTGAAATTATATACACACATAAATATGTCTGTA [CACACA_site3122],6.39
17,AATTATTAGCGTGGTGTGCACAAAATTATGGACACA,9.8
18,ACAAGCTTTCATAAGGTGCAATGATTTAACAAAAAA [GTGCAC_site9726],8.55
19,AATGTAAAACTAATATGTACATATCTCTAAAGAAAT [XGTACX_site8429],6.63
20,ATTGTCTTCCTTCTGGTGCGATGTATAGGTAAAGAT,7.35
21,CGTACTAACATAAAGACACACACCACATATAATAAA [CACACA_site3603],6.79
22,TGTAGAAATGGGTGCACACACATATATAATATATAT [CACACA_site2507],10.7
23,AACTCATCTTATAATTGTACATATTTATAAAAAGTA [XGTACX_site6522],6.38

row,Sequence,gcPBM binding intensity (ln)
1,TTAGGGATGCTGAAATGTACACATTTAAATTATATA [XGTACX_site3000],6.73
2,AAAAAAAAAAAAAAAAAAAAAAAAAAAAAATATATA [GTGCAC_negctrl_site6],7.43
3,AGAAGAAATATGTAAAAAATTTTATATTCACACACA [GTGCAC_negctrl_site441],6.85
4,CCCATATTATAGGTGTGTACATAAAAGTATATATAA [XGTACX_site3629],6.88
5,AATTTAATTTTTTCGTGTACTTATATAGGAGGTTTT [XGTACX_site8310],6.76
6,CAATTAAAGATATGAACACACATGTGAACTTTCTAT [CACACA_site7796],6.53
7,TTTCTTATCAACCTTTTTTTTTTTTTTTTATTCTTA [TGCATGCA_negctrl_site162],6.06
8,TTTATATATAATGTTGCATGTCAAATTTGTATATGG [TGCATGCA_site246],7.66
9,TGTTCTTATACTAATAGTACTTTTAGGTACTATAAA [XGTACX_site2954],6.13
10,TGTAGACATTAATGTAGTACAATATATATATATATT [XGTACX_site8608],6.62
11,ATATTTTTCCAACATCGTACATTATGAGTCAAAATT [XGTACX_site993],7
12,CCATAAAAAGGTACATGTACAAAAAGCAAAAATATG [XGTACX_site5543],7.26
13,TTTTTCTTTTTTTGGGGTACAGGGAAATCTATATTT [XGTACX_site7025],6.83
14,TCTTAATTTTTGAAGGTACACACTAATATATTAAAT [CACACA_site1191],6.68
15,AAAAAAAAAAAAAAAACACACATACCCATATATTTT [CACACA_site6013],6.6
16,ATGATATGCAATTTAGTGCATAACAAAATTGGTATA,10.5
17,TTGTGTAAATGTTAAGTGCATTTGGTAAAATATAAA [GTGCAC_site9699],9.03
18,TCTCCATCTTATGAGACATGCACTTTTTATTTAATA [TGCATGCA_site121],6.95
19,GTATATATATATATATATATATATATATATATATAT [CACACA_negctrl_site609],9.26
20,AAAAAATAAAAAAGGTGGTCATGTCACAAATACTTT [XGTACX_site7454],6.21
21,TGTGTATACTTGTGTATACCAAATTAAAGACGCTTT [CACACA_negctrl_site1359],6.34
22,TAAAAGTGATATGTTCGTACGTATTTATATGTAATA [XGTACX_site211],6.4
23,AATTTAAAAGCTTGTGGTACTTTTGCTCTTCCTTTG [XGTACX_site3148],6.49

row,Sequence,gcPBM binding intensity (ln)
1,TCAACAAATAAACTTTGTACATATATACAAAATATA [XGTACX_site4447],6.27
2,TATGTATTAAATTTTACACACATGATTCTCTATATG [CACACA_site8720],7.09
3,TATACATATTATATATGTACACATATTATATGTATA [XGTACX_site5851],6.39
4,TAACATGATATATAATGTACATATAAGATATTTATA [XGTACX_site4383],6.72
5,TTTAAAAAAAAAAAAAAAAATTAAATGAATTATTAA [CACACA_negctrl_site1121],5.74
6,ATGAATTATATATTATGTACATATAATTAAAATATA [XGTACX_site7140],6.32
7,ATACAAAAAAGAAGGACACACAGAAGTAACATGTTA [CACACA_site3074],6.79
8,CGTGGGAGCGGACACACACACACACCCATATATATA [CACACA_site4340],6.78
9,AAAAAAATATATATATATATATATATATATATATAT [TGCATGCA_negctrl_site7],9.41
10,AAATATAATAATATATGTACATATATATATATATAT [XGTACX_site6980],9.24
11,ATATTTTGTAATATTTGTACATATATTATACATATA [XGTACX_site963],6.32
12,AATAATGTATAATGATGTACAAAAAAGGAAGACATA [XGTACX_site2474],7.43
13,TTTTTTTTGCGTACAGTGCAAATTTATTTACTATTC,8.98
14,AAAAAAAAAAAAAAAAAAAAAAAAAAAAAAAAAAAT [CACACA_negctrl_site882],7.45
15,AAATTAAATAAATTTACACACTAAAAGTTACCTATA [CACACA_site6623],6.03
16,TTTGTTATTTATTAGTGTACAAAAAAGCATTTCAAA [XGTACX_site8729],6.39
17,TATGAAAATTAAGTTTGTACACAAGTGGAAAAAAAA [XGTACX_site6129],6.54
18,TACATTTATAATAATACACACATAAATTTACATTTT [CACACA_site3463],6.73
19,ATATAAAGAAATTAATTTTTCAACAATAAAAATATA [CACACA_negctrl_site1262],6.16
20,TTAAAAGATATTACATGTACATATTCAATATATGTA [XGTACX_site5895],6.13
21,ACAAATAAATAAAAATGTACAAATGAATACATCTTA [XGTACX_site3780],5.94
22,TTTTTTTAAAAAAACAAAAAAAAAAAAAATATAAAA [TGCATGCA_negctrl_site511],5.88
23,TACATCGGTATATAAACACACAACAAAAATGCTTAC [CACACA_site5983],6.62

row,Sequence,gcPBM binding intensity (ln)
1,AAAATAATTAAAAAAAGTACTCGTAATATAAATATA [XGTACX_site4967],6.52
2,AGGTGTATCATAAAATGTACATACATACATACATAA [XGTACX_site4479],6.23
3,TATTATTATTTTTTATGTACTAACGACAAAAATATT [XGTACX_site252],6.27
4,TTGTAATTCATTCAAATATAAAATAAATAAATATGA [CACACA_negctrl_site349],6.04
5,AAAATGTGCTTTTCAGTGCAATTTTTTTTGTAATAA [GTGCAC_site9566],9.37
6,TATGTAAAAAGAGAAAAAAAAAAGAACGATAATTTC [CACACA_negctrl_site946],5.96
7,ATATAAGAATTTAAGAGTACATTCACTTCAAATTTA [XGTACX_site2115],5.83
8,TATTCTATAAATATATTTTTTTAATTTTTTATTTTA [CACACA_negctrl_site307],6.27
9,AAATTTAATTTTATATCACACATTAAATTTTAATGG [CACACA_site4251],6.49
10,AAAAAAAAAAAAAAAGGTACAGTAAAAAATTCCTCT [XGTACX_site5947],6.46
11,ATATAATATATTTTCACACATATTTTATGATGATAA [CACACA_site5614],6.45
12,ATAACATAACATAATACACACATATAAAAAAGAAAT [CACACA_site3028],7.34
13,TTTTTTTTTTTTTTTTTTTTACGATATATTTTAAAA [XGTACX_negctrl_site401],6.49
14,TTTTTACTTATTTATTATGTACAATTTCTTCTTTCT [CACACA_negctrl_site264],6.15
15,TAGATCATAACAATTGCACACATTTGCATTTATATT [CACACA_site1562],10.1
16,TTCAAAAAATATATCTGTACAAATTATGTAGATGAA [XGTACX_site5522],6.5
17,AAGATAAAAATATGCACACATATATATATATATATA [CACACA_site404],9.91
18,TAATTAAGAATATATAGTACATAGTTGAAAAACTTT [XGTACX_site6359],6.08
19,AATAGTTAAATACATACATGCATTCATATAATATAT [TGCATGCA_site433],6.53
20,AACGAAAACACTACGTGTACCAAACGTCCTACCAAC [XGTACX_site257],6.35
